Source: PubChem BioAssay AID1240 (Sanford-Burnham Center for Chemical Genomics, 2008)
Screen size: about 50,000 compounds; about 800 (1.6%) showed an effect of 50% or more. This is one part of the list.

Target: Bcl-2-like protein 10 (Homo sapiens) (UniProt Q9HD36)
Assay: Phenotype converters, Bcl-B/TR3 peptide binding displacement, primary biochemical FP (AID 1240);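 note: 0% = Bcl-B with tracer peptide and DMSO and 100% = tracer peptide lacking Bcl-B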
Conditions: GST-Bcl-B / FITC-TR3 peptide fluorescence polarization; stronger effect = higher value; compound at 3.75 mg/L

Sequence of UniProt Q9HD36 (Q9HD36 whole entry, looked up): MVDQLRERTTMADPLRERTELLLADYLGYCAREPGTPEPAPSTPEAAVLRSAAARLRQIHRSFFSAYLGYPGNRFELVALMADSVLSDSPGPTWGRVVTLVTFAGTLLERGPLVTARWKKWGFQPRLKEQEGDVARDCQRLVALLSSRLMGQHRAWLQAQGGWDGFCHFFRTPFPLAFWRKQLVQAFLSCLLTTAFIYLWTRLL

Row | Structure (SMILES) | displacement
1 | COc1cc(C=C2C(=O)N(C)C(=O)N(C)C2=O)ccc1OCc1ccc([N+](=O)[O-])cc1 | -3.1%
2 | CCOS(=O)(=O)/C=C/c1ccccc1 | 2.2%
3 | CC1CCCN(C(=O)c2ccccc2NC(=O)c2ccc(Cl)cc2)C1 (stereo not given) | -4.5%
4 | CCn1nnnc1-c1ccc(OC)c(S(=O)(=O)NCc2ccccc2)c1 | 2.5%
5 | COc1ccc(CN2CCN(Cc3ccncc3)CC2)cc1 | 4.3%
6 | Cc1nnc(NC(=O)COc2ccccc2)s1 | -3.6%
7 | Cc1nonc1OCCCNc1ccc([N+](=O)[O-])cc1Cl | 12.4%
8 | O=C(c1ccccc1Br)N1CCN(c2ccc(Cl)cc2[N+](=O)[O-])CC1 | -10.8%
9 | CCOC(=O)/C=C(\C)N1N=C(c2ccccc2)CC1c1cccc([N+](=O)[O-])c1 (stereo not given) | -5.7%
10 | CC1=NN(c2ccccc2)C(=O)/C1=C\c1ccc(O)cc1 | 4.3%
11 | CCc1ccccc1NC(=O)c1cc2cc(Br)ccc2oc1=O | 2.8%
12 | CCOc1ccc(N/C=C2\CCCCC2=O)c([N+](=O)[O-])c1 | -6%
13 | COc1ccc(C2Nc3ccccc3C(=O)N2c2ccccc2)cc1COc1ccccn1 (stereo not given) | 7.5%
14 | CCCCNCCCCOc1ccc(C)cc1 | 7.5%
15 | COc1ccccc1NC(=O)C1=C(C)NC(=O)NC1c1cccs1 (stereo not given) | -17.5%
16 | CCc1ccc(N2C(=O)/C(=C/c3ccc(O)c(Cl)c3)C(=O)NC2=S)cc1 | 2.8%
17 | O=C(N/N=C/c1ccc(C(=O)O)cc1)C(=O)NC1CCCCC1 | 6.6%
18 | CCOc1cccc(N2C(=O)CC(N3CCN(C)CC3)C2=O)c1 (stereo not given) | -6.2%
19 | O=C(CNc1ccc(Cl)cc1)c1ccc(Br)cc1 | 0.2%
20 | Brc1cc2c(cc1/C=N/Nc1ccccc1)OCO2 | -7.3%
21 | CN1C(=O)/C(=C\c2cn(CCOc3ccc(Br)cc3)c3ccccc23)SC1=S | 3.5%
22 | C=CCNC(=O)c1ccc(C(C)(C)C)cc1 | 3.8%

Row | Structure (SMILES) | displacement
23 | COc1ccc(OC)c(NC(=S)NC(NC(=O)c2ccccc2Cl)C(Cl)(Cl)Cl)c1 (stereo not given) | -0.4%
24 | O=C(CN1CCN(CCN2C(=O)c3cccc4cccc(c34)C2=O)CC1)c1ccccc1 | 15.6%
25 | Cc1ccccc1/C=C1\C(=O)NC(=S)N(c2cccc(Br)c2)C1=O | 13.2%
26 | O=c1c2ccccc2nc(-c2ccccc2)n1CCCn1ccnc1 | 0.5%
27 | O=Cc1[nH]c2ccccc2c1Nc1ccc([N+](=O)[O-])cc1 | -2.7%
28 | COc1ccccc1/C=C1\C(=O)NC(=O)N(C(C)(C)C)C1=O | -6%
29 | CC(C)c1ccccc1NS(=O)(=O)c1ccccc1[N+](=O)[O-] | -3.6%
30 | NC(=O)c1ccc(NC(=O)Nc2cccc3ccccc23)cc1 | 18.6%
31 | COc1cccc(NC(=O)c2ccc(-c3ccccc3)cc2)c1 | 8.2%
32 | COc1cc(C(=O)Nc2c(C)cccc2C(=O)O)cc(OC)c1OC | 7%
33 | O=C(Nc1cc(C(F)(F)F)ccc1Cl)c1nn2c(c1Br)NC(c1ccccc1)CC2C(F)(F)F (stereo not given) | 8.1%
34 | COc1ccc2c(c1OC)C(=O)N(c1cccc(Cl)c1)C2=O | -23.7%
35 | O=C(Nc1ccc([N+](=O)[O-])cc1)c1cc2ccccc2o1 | 3.5%
36 | COC(=O)C1=C(C)NC2=C(C(=O)CC(c3ccc(OC)c(OC)c3)C2)C1c1ccccc1OCc1ccccc1 (stereo not given) | 12.2%
37 | Cc1ccc(Sc2ccc(/C=C3/SC(=S)N(C)C3=O)o2)cc1 | 3.3%
38 | Cc1ccc(C)c(OCc2nnc(NC(=O)c3ccccc3)s2)c1 | -10.9%
39 | COc1ccc(N(CC(=O)NCC(C)C)S(C)(=O)=O)cc1Cl | -9.2%
40 | O=C(Nc1ccc[n+](CC(=O)c2cc3ccccc3oc2=O)c1)c1ccccc1 | 16.9%
41 | CC1C(C(=O)N(C=O)c2cccc([N+](=O)[O-])c2)C2C=CC1C21CC1 (stereo not given) | 0%
42 | COc1cc(C(=O)n2nnc3ccccc32)c([N+](=O)[O-])cc1OC | -9.7%
43 | COc1ccc(NC(=O)CCN2C(=O)/C(=C\c3cccc(OC)c3)SC2=S)cc1 | -5.5%
44 | CCCCOc1ccc(N2C(=O)c3cccc4cccc(c34)C2=O)cc1 | 0.2%

Row | Structure (SMILES) | displacement
45 | O=C(CSc1nc2ccc([N+](=O)[O-])cc2s1)Nc1ccccc1[N+](=O)[O-] | 3%
46 | CCOc1ccccc1N1CCN(C(=O)Nc2ccc(Cl)c(Cl)c2)CC1 | -8.9%
47 | Cc1ccc(S(=O)(=O)n2cc(C=C3C(=O)NC(=S)NC3=O)c3ccccc32)cc1 | 19.9%
48 | O=C(N/N=C/c1ccc(O)c(O)c1)NC12CC3CC(CC(C3)C1)C2 | 7.9%
49 | CCCC(C)NC(=O)Cc1ccccc1 (stereo not given) | 6.1%
50 | CCCc1c(C)nc2c(Cl)cccc2c1SCC(=O)O | -1.7%
51 | O=C1NCCN/C1=C\C(=O)c1cccc(Br)c1 | -1.5%
52 | Cc1cc(C)cc(NC(=O)C(=O)NCc2ccncc2)c1 | 11.7%
53 | O=C(c1ccc(F)cc1F)N1CCN(c2cc(N3CCOCC3)c(F)cc2[N+](=O)[O-])CC1 | -0.4%
54 | COc1cc(C(=O)N2CCCc3ccccc32)c([N+](=O)[O-])cc1OC | 12.3%
55 | CCOC(=O)c1cnc2cc(-c3ccc(Br)cc3)nn2c1N | -1.8%
56 | CCOc1ccc(S(=O)(=O)N(CC(=O)Nc2cccc(Cl)c2C)c2ccc(C)cc2)cc1 | 1.6%
57 | Oc1cccc(Nc2nc(-c3ccc(Br)cc3)cs2)c1 | 10.4%
58 | Cc1ccc(S(=O)(=O)C(NC(=O)c2ccccc2)=C(Cl)Cl)cc1 | -6%
59 | Cc1ccc(S(=O)(=O)N2CCN(S(=O)(=O)c3ccc(C)cc3)C3OCCOC32)cc1 (stereo not given) | -0.9%
60 | CCOc1cc(C2Nc3ccccc3NC3=C2C(=O)CC(c2ccc(OC)cc2)C3)ccc1OC(C)=O (stereo not given) | -7.6%
61 | CC(C)C(=O)Nc1ccc(Br)cc1C(=O)O | 11.6%
62 | CCOc1ccc(N2C(=O)CC(C(C)c3ccccc3)C2=O)cc1 (stereo not given) | 1.1%
63 | CCN(CC)c1ccc(/C=N/n2c(C)nnc2C)cc1 | -10.7%
64 | c1coc(CNc2nc(N3CCOCC3)nc(N3CCOCC3)n2)c1 | -1.4%
65 | CCOC(=O)C1=C(C)N=c2s/c(=C\c3cccs3)c(=O)n2C1c1ccc(SC)cc1 (stereo not given) | 32.3%
66 | CCCCc1c(C)nc2ccc(OC)cc2c1SCC(=O)O | -9.1%

Row | Structure (SMILES) | displacement
67 | CCn1c(=O)c(C(=O)Nc2cccc(O)c2)c(O)c2ccccc21 | 10.6%
68 | O=C(CCNc1ccc2ccccc2c1)c1ccc([N+](=O)[O-])cc1 | 3%
69 | O=c1[nH]c(N2CCOCC2)nc2ncn(Cc3ccccc3)c12 | 1.6%
70 | CCOc1cc(C(=O)N2CCCC2)cc(OCC)c1OCC | -4.4%
71 | O=C(O)CCCCC(=O)NC1=NCCS1 | -0.3%
72 | COCCOC(=O)C1=C(C)NC(=O)NC1c1ccc(Br)cc1 (stereo not given) | 1.2%
73 | COc1ccc(C(=O)N2c3cc(C)ccc3C(Nc3ccc(C)cc3)CC2C)cc1 (stereo not given) | -2.3%
74 | Cc1ccc(S(=O)(=O)Nc2ccccc2C(O)C[N+](=O)[O-])cc1 (stereo not given) | -4.2%
75 | Cc1ccc(NC(=S)NC(=O)/C=C/c2ccccc2)cc1NC(=O)c1ccccc1 | 16.8%
76 | O=C(c1cc(N2CCOCC2)c(F)cc1[N+](=O)[O-])N1CCOCC1 | 8.3%
77 | Cc1ccc(C(C)C)c(OCc2nnc(NC(=O)c3ccc(Cl)cc3Cl)s2)c1 | -9.3%
78 | Oc1ccc(Cl)cc1-c1cc(-c2ccc(Br)cc2)n[nH]1 | -3.2%
79 | Cc1ccc(OCc2nnc(NC(=O)c3cccs3)s2)cc1 | 4.5%
80 | CN1C(=O)N(C)C(NC(=O)NC(C)(C)C)C1NC(=O)NC(C)(C)C (stereo not given) | 14.5%
81 | Cc1cc(C23CC4CC(CC(C(=O)O)(C4)C2)C3)c(C)cc1C12CC3CC(CC(C(=O)O)(C3)C1)C2 | -6.7%
82 | CC(C)c1ccc(NC(=O)C2COc3ccccc3O2)cc1 (stereo not given) | 2.2%
83 | Cc1ccc(-c2nc3ccccc3o2)cc1NC(=O)COc1ccc(Cl)cc1 | -8.5%
84 | COc1ccc(CNc2ccc3c(c2)nc(C)n3C)cc1OC | 0.9%
85 | Cc1cc(C=C2C(=O)c3ccccc3C2=O)c(C)n1-c1ccc(N2CCOCC2)cc1 | 0.7%
86 | O=C(c1ccccc1F)N1CCN(Cc2ccccc2Cl)CC1 | -12.8%
87 | COC(=O)c1ccccc1NC(=O)COc1cc(C)ccc1C(C)C | 3%
88 | O=C(COc1ccc(Cl)cc1)N1CCN(C(=O)c2ccc(F)cc2)CC1 | -3.3%

Row | Structure (SMILES) | displacement
89 | CCOc1c(C)cc2[nH]c(=S)[nH]c2c1C | 10.3%
90 | COc1ccccc1C(=O)Nc1ccc2c(c1)OCCO2 | -3.4%
91 | CCOc1ccc(C(=O)Nc2ccc3nn(-c4ccc(OCC)cc4)nc3c2)cc1 | -1.5%
92 | COC(=O)CN(c1ccc(C)cc1C)S(=O)(=O)c1ccccc1 | 17.6%
93 | CC(=O)OCCCn1c(=O)c2cc3c(=O)n(CCCOC(C)=O)c(=O)c3cc2c1=O | 10%
94 | O=C(N/N=C/c1cc(O)c(Br)cc1Br)c1cccc(F)c1 | -3.4%
95 | Cc1cc(C)c(S(=O)(=O)N2CCN(c3ccccc3)CC2)c(C)c1 | -4.5%
96 | O=C(C#Cc1cccc([N+](=O)[O-])c1)c1ccccc1 | 2.8%
97 | CC1(C)Cc2c(sc3[nH]c(=S)n(Cc4ccccc4)c(=O)c23)CO1 | -9.2%
98 | Cn1c(O)c(C(N)=NC(=O)c2ccccc2)c(=O)n(C)c1=O | -8%
99 | CC1=C(C(=O)OC(C)C)C(c2ccccc2Cl)CC(=O)N1 (stereo not given) | -9.9%
100 | COc1ccc(NS(=O)(=O)c2ccc([N+](=O)[O-])cc2)cc1Cl | -5.8%
101 | C/C(=C\C(=O)c1ccc(Cl)cc1)Nc1cc(C)ccc1Cl | 6.2%
102 | COc1ccccc1NC(=O)C1=C(C)Nc2sc(C#N)c(N)c2C1c1ccco1 (stereo not given) | 9.1%
103 | O=C(Nc1ccccc1)C1C2/C=C\CCCCC21 (stereo not given) | -10.2%
104 | Cc1ccc(OCC(=O)Nc2ncc(S(=O)(=O)c3ccc([N+](=O)[O-])cc3)s2)c(C(C)(C)C)c1 | -7.2%
105 | O=C(CCCOc1ccccc1)Nc1cc(C(F)(F)F)ccc1Cl | -1.9%
106 | C=C(C)COc1ccc2c3c(c(=O)oc2c1C)CCCC3 | -5.8%
107 | Brc1ccc2ncnc(NCCCN3CCOCC3)c2c1 | -0.7%
108 | O=C(NCCCN1CCOCC1)C(=O)Nc1ccc(I)cc1 | 11.9%
109 | CC(=O)c1ccc(NC(=O)c2c(-c3ccccc3)noc2C)cc1 | 6.8%
110 | O=C(NNC(=O)c1ccc(Cl)c(Cl)c1)c1cccc(Cl)c1 | -12.7%
